# Out of some 340,000 compounds screened, about 6,900 (2%) were called active. No stated cut-off is given here; in the data, active means inhibition above about 30%; inactive means below that, where a call was filed. The list shows a part of the results, in another mix than the full data. The source gives no active or inactive call for entries shown without one.
# Target: D(2) dopamine receptor (Homo sapiens) (UniProt P14416)
# Assay: HTS Assay for Allosteric Antagonists of the Human D2 Dopamine Receptor: Primary Screen for Antagonists; further: 0% is about no effect
# Conditions: HEK293 TREx D2 cells, calcium flux, dopamine EC80; at 10 µM; stronger effect = higher value
# Outline: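 Read-out: kinetic calcium fluorescence (1 cycle/s) in inducible HEK293 T-REx D2 cells after an EC80 dopamine addition that followed 180 s compound preincubation. Loss of the dopamine response indicates antagonism.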
# Chain of UniProt P14416 (P14416 whole entry, looked up): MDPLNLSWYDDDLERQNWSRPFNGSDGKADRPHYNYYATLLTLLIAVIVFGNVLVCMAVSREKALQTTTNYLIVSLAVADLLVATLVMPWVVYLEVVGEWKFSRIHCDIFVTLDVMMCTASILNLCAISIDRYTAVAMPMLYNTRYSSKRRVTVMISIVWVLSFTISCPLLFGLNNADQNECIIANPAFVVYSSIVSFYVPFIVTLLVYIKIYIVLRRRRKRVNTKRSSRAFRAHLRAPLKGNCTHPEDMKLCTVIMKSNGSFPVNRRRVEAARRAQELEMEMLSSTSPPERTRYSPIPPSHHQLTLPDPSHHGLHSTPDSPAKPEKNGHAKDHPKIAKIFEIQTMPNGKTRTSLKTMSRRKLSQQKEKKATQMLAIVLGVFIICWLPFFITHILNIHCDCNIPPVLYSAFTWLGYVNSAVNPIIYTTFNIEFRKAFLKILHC
row,Compound,inhibition
1,COc1ccccc1NC(=O)C1=C(C)Nc2nc(SC)nn2C1c1ccccc1Cl (stereo unspecified),-17.7%
2,Cc1cc2oc(=O)c(CC(=O)NCCc3ccccc3F)c(C)c2c2occ(C(C)(C)C)c12,3.32%
3,CCOC(=O)c1c(NC(=O)c2ccc(OCC)c(Br)c2)sc2c1CCCC2,8.77%
4,CCCCN(C(=O)C1CCC(CNS(=O)(=O)c2cccc3nsnc23)CC1)c1ccccc1 (stereo unspecified),16%
5,CC(=O)Nc1ccc(NC(=O)CN(C)S(=O)(=O)c2ccc3c(c2)CCCC(=O)N3)cc1,3.91%
6,O=c1c2cc3c(cc2nc2sc(Nc4cccc([N+](=O)[O-])c4)nn12)OCO3,-12.5%
7,Cc1ccc(C)c(S(=O)(=O)c2nnn3c2nc(N2CCN(C)CC2)c2sccc23)c1,1.98%
8,CCc1c(C)c2cc3c(c(C)c2oc1=O)OCN(CCc1ccccc1F)C3,5.28%
9,O=C(CSc1nc2ccccc2nc1Cc1ccc(Cl)cc1)N1CCN(c2ccccc2)CC1,-8.2%
10,Cc1ccc(-n2ncc(C(=O)NCc3ccco3)c2C2CCN(C(=O)OC(C)(C)C)CC2)cc1C,1.69%
11,COc1cc(NC(=O)c2cc3cc4ccc(C)cc4nc3o2)cc(OC)c1OC,10%
12,O=C(c1ccc2c(c1)N(Cc1ccc(F)cc1)C(=O)c1ccccc1S2(=O)=O)N1CCCCC1,-6.87%
13,Cc1ccc(-c2nn3c(C)nnc3c3ccccc23)cc1S(=O)(=O)NCC(C)O (stereo unspecified),1.07%
14,CC(C)Cc1cc(CN2CCC(CO)(Cc3ccccc3)CC2)[nH]n1,active: 47.4%
15,NC(=O)c1cc(S(=O)(=O)N2CCN(c3cccc(C(F)(F)F)c3)CC2)cs1,-3.26%
16,COc1cc(NC(=O)CSc2c3c(nc4ccccc24)CCC3)cc(OC)c1OC,-2.08%
17,CCC(=O)N1CCc2cc(S(=O)(=O)NCCC(=O)Nc3ccc(N(CC)CC)cc3C)ccc21,18%
18,CCN(CC)S(=O)(=O)c1ccc(C(=O)NCCSc2c(-c3ccccc3)[nH]c3ccccc23)cc1,-7.39%
19,Cc1cc(C)cc(NC(=O)Cc2noc3ccccc23)c1,15%
20,O=C(c1ccccc1)N1c2nc(-c3ccco3)nn2C2(CCCCC2)[C@@H]2CCCC[C@@H]21,-3.76%
21,Cc1ccc(C2CC(c3ccccc3)=NN2c2ccccc2)o1 (stereo unspecified),active: 35.6%

row,Compound,inhibition
1,Cc1ccccc1OCc1ccc(-c2nc(C#N)c(N3CCN(c4cccc(Cl)c4)CC3)o2)o1,7.41%
2,Cc1cc(C)cc(NC(=O)C(Cc2ccccc2)NS(=O)(=O)c2ccc3c(c2)CCC(=O)N3)c1 (stereo unspecified),-16.4%
3,CCOc1ccccc1NC(=O)C(=O)Nc1ccc2nc3n(c(=O)c2c1)CCCCC3,0.678%
4,OCc1cnc(SCc2ccccc2F)n1Cc1ccc(F)cc1,2.79%
5,CCCOc1ccc(CNC(=O)C(NS(=O)(=O)c2cccs2)C(C)C)cc1 (stereo unspecified),11.5%
6,COc1cc(Cl)c(C)cc1NC(=O)c1cnc(N2CCCCC2)c2ccccc12,-6.23%
7,COc1cc2nc(SCc3ccc(C)cc3)n3nc(CCn4nc(C)cc4C)nc3c2cc1OC,18.3%
8,CC(C)Cn1c(-c2cccc(Br)c2)nc2ccccc21,5.09%
9,COC(=O)C(CCSC)Nc1ncnc2onc(-c3ccc(F)cc3)c12 (stereo unspecified),-3.15%
10,Cc1ccc(CNC(=O)C(=O)NCC(c2ccc3c(c2)OCO3)N2CCOCC2)cc1 (stereo unspecified),20.1%
11,CCOC(=O)C1(C)C=C(Nc2cccc(C(=O)O)c2)C(=O)N1c1ccccc1 (stereo unspecified),20.2%
12,CC1Cc2ccccc2N1C(=O)Cn1cc([N+](=O)[O-])cn1 (stereo unspecified),active: 38.7%
13,Cc1ccc2c(=O)cc(C(=O)Nc3c(C)n(C)n(-c4ccccc4)c3=O)oc2c1,17.3%
14,Cc1n[nH]c(C)c1S(=O)(=O)N1CCC(C(=O)N2CCn3c2nc2ccccc23)CC1,active: 39.3%
15,COc1ccccc1N1CCN(C(=O)C2CCCN(S(=O)(=O)c3ccc4c(c3)CCCN4C(C)=O)C2)CC1 (stereo unspecified),3.43%
16,Cc1ccc(Nc2ncnc3sc4c(c23)CCC(C)C4)cc1C (stereo unspecified),-7.48%
17,Cc1ccc(NC(=O)c2ccc(NC(=O)CCS(=O)(=O)c3cccs3)cc2)cc1F,-0.276%
18,Cc1ccc(S(=O)(=O)N(C)C)cc1NC(=O)CN1c2cccc3cccc(c23)S1(=O)=O,active: 37%
19,COc1cccc(Cn2cc(C(=O)c3ccc(Cl)cc3)c(=O)c3ccccc32)c1,-17.5%
20,Cc1ccccc1Nc1c(-c2ccc(N3CCOCC3)cc2)nc2ccc(Br)cn12,-9.15%
21,O=C(CCN1C(=O)COc2ccccc21)NCCCN1CCN(c2ccccc2F)CC1,active: 82%

row,Compound,inhibition
1,CCSc1ncc(Cl)c(C(=O)Nc2cccc(Cl)c2)n1,5.97%
2,CNC(=O)CN1C(=O)COc2ccc(S(=O)(=O)N3CCC(C)CC3)cc21,6.99%
3,COCCNC(=O)c1ccccc1NC(=O)c1nsc2ccccc12,-13.7%
4,Cc1ccc(-n2cnnn2)cc1S(N)(=O)=O,-6.81%
5,COc1ccc2[nH]cc(CCN=C(NC(=O)c3ccccc3OC)Nc3nc(C)cc(C)n3)c2c1,6.89%
6,Cc1cc2[nH]c(=O)c(=O)[nH]c2cc1S(=O)(=O)N1CCN(c2cccc(Cl)c2)CC1,1.61%
7,COC(=O)Cn1c(SCCOc2ccccc2OC)nc2ccccc21,-3.56%
8,CN1C(=O)C2(C(C#N)=C(N)N(c3cc(Cl)cc(Cl)c3)C3=C2C(=O)CC(C)(C)C3)c2ccccc21 (stereo unspecified),active: 33.1%
9,Cc1nc2cccnc2n1C1CCN(C(=O)Nc2ccc(Cl)cc2)CC1,3.13%
10,CCc1c(C)sc2c1CCN(Cc1ccccc1F)C2c1ccccc1 (stereo unspecified),-7.49%
11,CCOc1ccc(-c2c(C)nn3c(C)c(C(=O)NCCc4ccc(C)cc4)cnc23)cc1OCC,-10.8%
12,COC(=O)Cc1c(C)c2ccc3c(c2oc1=O)CN(Cc1ccccc1Cl)CO3,-4.64%
13,O=C(NCCSc1c[nH]c2ccccc12)c1ccccc1Cl,-10.5%
14,c1ccc(-c2cc3n(c2)CCc2ccccc2-3)cc1,active: 33.1%
15,Cc1cccc(-n2c(=O)c3ccccc3n(Cc3ccc(F)cc3)c2=O)c1,16.6%
16,CCc1ccc(Nc2nc3ccccc3nc2NS(=O)(=O)c2ccccc2)cc1,1.04%
17,Nc1nc(CN2CCN(c3ccccc3F)CC2)nc(Nc2ccccc2)n1,active: 47.3%
18,Cc1cc2c(cc1S(=O)(=O)Nc1cc(C(F)(F)F)cc(C(F)(F)F)c1)OCC(=O)N2,-10.9%
19,Cc1ccc(NC(=O)/C=C/c2ccccc2Cl)cc1Cl,-22.8%

# Source: PubChem BioAssay AID485344 (National Center for Advancing Translational Sciences (NCATS), 2010)
